This data set deals with the molecule itself. As to the kind of experiment: SEC-MALS; refolded HSP27 proteins at 1.5 mg/mL in 1x DPBS, 2 mM DTT; 150 ug injected; Shodex 804 column; mobile phase degassed 1x DPBS, 0.5 mL/min; self-association into oligomers.

B1: O-GlcNAc modified HSP27 P182L (gT184) (natural protein)
chain: not shown
modifications: O-GlcNAc on threonine 184
As to B1, the binding result is given as “binds”.

B2: O-GlcNAc modified HSP27 P182S (gT184) (natural protein)
chain: not shown
modifications: O-GlcNAc on threonine 184
Regarding B2, the binding result is reported as “binds”.

(Values after PMC10442854 (ACS chemical biology, 2023).)
